The values that follow come from PMC3120853, “Functional Role of Dimerization of Human Peptidylarginine Deiminase 4 (PAD4)” (PLoS ONE, 2011).

Data set [1] concerns the molecule itself. Description: AUC; sedimentation velocity, 0.1, 0.3 and 1 mg/ml fitted globally (SEDPHAT, monomer-dimer equilibrium model); 50 mM Tris-HCl, 250 mM NaCl, pH 7.6, 20°C, without Ca2+; dimer to monomers.
Data set [2] deals with the molecule itself. The experiment in a line: cell-based or functional assay.
Data set [3] concerns the molecule itself. The experiment in a line: AUC; sedimentation velocity, 0.1, 0.3 and 1.0 mg/mL; 50 mM Tris-HCl, 250 mM NaCl, pH 7.6, 20°C, with 10 mM Ca2+; dimer to monomers.

B1: Human PAD4 D273A/R544A double mutant (enzyme)
chain: not shown
notes: human peptidylarginine deiminase 4 (PAD4) in pQE30; source: E. coli JM109, purified (Ni-NTA)
For orientation: Kd means the equilibrium constant for the complex coming apart. A low value points to tighter binding. As a reminder, the stoichiometry N is the number of molecules, sites or subunits per partner or assembly. B1: in data set [1], the Kd was 0.68 ± 0.006 µM and the “stoichiometry N” value was found to be 2.

B2: Human PAD4 R8E/D547E double mutant (enzyme)
chain: not shown
notes: as for B1
In data set [1], B2 had a Kd of 24 ± 0.23 µM. In addition, the “k cat of the PAD4 enzyme assay (BAEE substrate, coupled to glutamate dehydrogenase)” value (“k cat of the PAD4 enzyme assay” for short) in data set [2] is 3.3 s⁻¹.

B3: Human PAD4 Y237A mutant (enzyme)
chain: not shown
notes: as for B1
B3: in data set [1], the Kd worked out at 0.29 ± 0.002 µM and the “stoichiometry N” value was found to be 2.

B4: Human PAD4 Y237A/E281A double mutant (enzyme)
chain: not shown
notes: as for B1
B4: in data set [1], the dissociation constant Kd amounted to 0.1 ± 0.001 µM and the “stoichiometry N” value stood at 2.

B5: Human PAD4 R8H mutant (enzyme)
chain: not shown
notes: as for B1
For the protein B5, in data set [1], the Kd stood at 0.47 ± 0.005 µM and the “stoichiometry N” value was 2.

B6: Human PAD4 Y435A mutant (enzyme)
chain: not shown
Turning to B6, the “k cat of the PAD4 enzyme assay” value in data set [2] was 5.9 s⁻¹.

B7: Human PAD4 R8L mutant (enzyme)
chain: not shown
notes: as for B1
As to B7, the Kd in data set [1] was determined as 16.8 ± 0.14 µM. For the same protein, the “k cat of the PAD4 enzyme assay” value in data set [2] stood at 5.3 s⁻¹.

B8: Human PAD4 D547E mutant (enzyme)
chain: not shown
notes: as for B1
Consider B8, for which, in data set [1], the Kd worked out at 11.2 ± 0.11 µM and the “stoichiometry N” value stood at 2. In data set [2], the “k cat of the PAD4 enzyme assay” value stood at 8.9 s⁻¹.

B9: Human PAD4 D547A mutant (enzyme)
chain: not shown
notes: as for B1
Regarding B9, in data set [1], binding was put at a Kd of 6.4 ± 0.07 µM and the “stoichiometry N” value amounted to 2. Further, in data set [2], the “k cat of the PAD4 enzyme assay” value is 11.6 s⁻¹.

B10: Human PAD4 R8K mutant (enzyme)
chain: not shown
notes: as for B1
In the case of B10, in data set [1], the Kd was determined as 10.2 ± 0.11 µM and the “stoichiometry N” value turned out to be 2. Moreover, the “k cat of the PAD4 enzyme assay” value in data set [2] worked out at 10.8 s⁻¹. The protein further gave a Kd in data set [3] of 7.8 ± 0.08 µM.

B11: Human PAD4 D547N mutant (enzyme)
chain: not shown
notes: as for B1
In the case of B11, in data set [1], binding was characterised by a dissociation constant (Kd) of 4.9 ± 0.05 µM and the “stoichiometry N” value came out at 2. The “k cat of the PAD4 enzyme assay” value in data set [2] was found to be 12.2 s⁻¹.

B12: Human PAD4 Y435N mutant (enzyme)
chain: not shown
notes: as for B1
In the case of B12, the Kd in data set [1] came to 33.8 ± 0.24 µM; in data set [3], 19.8 ± 0.19 µM. Also, the “k cat of the PAD4 enzyme assay” value in data set [2] was 4 s⁻¹.

B13: Human PAD4 R8A/D547A double mutant (enzyme)
chain: not shown
notes: as for B1
Turning to B13, in data set [1], binding was characterised by a dissociation constant (Kd) of 3.9 ± 0.04 µM and the “stoichiometry N” value is 2. The “k cat of the PAD4 enzyme assay” value in data set [2] was 10.7 s⁻¹.

B14: Human PAD4 R8A mutant (enzyme)
chain: not shown
notes: as for B1
Consider B14, for which, in data set [1], binding was characterised by a dissociation constant (Kd) of 9.3 ± 0.08 µM and the “stoichiometry N” value was 2. Besides, the “k cat of the PAD4 enzyme assay” value in data set [2] is 12.2 s⁻¹.

B15: Human PAD4 E281A mutant (enzyme)
chain: not shown
notes: as for B1
Regarding B15, in data set [1], the Kd is 0.1 ± 0.001 µM and the “stoichiometry N” value was determined as 2.

B16: Human PAD4 R8E mutant (enzyme)
chain: not shown
notes: as for B1
B16: the dissociation constant (Kd) in data set [1] is 45.6 ± 0.37 µM; in data set [3], 22.3 ± 0.12 µM. The “k cat of the PAD4 enzyme assay” value in data set [2] is 7.3 s⁻¹.

B17: Human PAD4 R8Q mutant (enzyme)
chain: not shown
notes: as for B1
Take B17: in data set [1], the Kd amounted to 15.7 ± 0.14 µM and the “stoichiometry N” value came out at 2. For the same protein, the “k cat of the PAD4 enzyme assay” value in data set [2] was 12.2 s⁻¹.
